± gives the standard deviation of the averaged measurements. Some of the results follow.
System: PfAP2-G AP2 domain (GST-tagged)
Test: gcPBM binding intensity (ln(normalized median fluorescence intensity)); higher = stronger DNA binding
Procedure, shortened: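 An Agilent 4 × 180k array of primer-extended double-stranded 36-bp intergenic genomic probes, with negative controls, was incubated for 1 h with GST-tagged P. falciparum DNA-binding domains expressed in E. coli. Alexa488 anti-GST antibody detected bound protein, scanned at 488 nm. Binding intensity is the highest Masliner-normalised natural-log median intensity across replicate spots of either probe orientation.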

Sequence | gcPBM binding intensity (ln)
TATTTTAATGAATTCACACATATAATTTATTTTATA [CACACA_site4538] | 9.69 ± 0.15
TTTGTAAGAAATAAATGTACAAAAATTAATTTTTAT [XGTACX_site8983] | 10.6 ± 0.41
ATTTGCAGTATTTCGGAACACACAAACATAAATATG [CACACA_site8726] | 10.4 ± 0.23
TATAAAAAATTCTTCCTTATTTTATGATATATATAT [TGCATGCA_negctrl_site57] | 9.735 ± 0.078
ATATTTCAAAATGAAAGTACATATAAAAATTATACA [XGTACX_site3787] | 11.1 ± 0.69
AAGTATTTTTTTACATGTACATATATATATATATAT [XGTACX_site5065] | 11.3 ± 0.95
AAATAGATAAGTAGGACACACATATATATATATTAA [CACACA_site1862] | 11.3 ± 0.9
TATTCCTATAAAAAAACACACACATATAAATATATA [CACACA_site8727] | 9.875 ± 0.049
AAATATATTTCACGCACACACACCCCAAATAAATTT [CACACA_site3820] | 10.5 ± 0.32
AAATGAATATTCATAGTGCAATATATAAATGAAAAT | 10.07 ± 0.049
CAAAAACATACCTACACACACAATATGTATTTATAA [CACACA_site5862] | 9.985 ± 0.021
AATTACATTCAATTCTGTACTAATAGTAATTCAAAA [XGTACX_site7419] | 11 ± 0.63
TTTAATTATTAGTGTGCACACAACTATGAGTTTTTA [CACACA_site8997] | 10.5 ± 0.29
TTAAAAATGTGTGTGCGTACATAATATTTCGAAAAA [XGTACX_site8197] | 11.6 ± 1
GTACAAATGATTAATCCTTTACTTATATATATATAT [XGTACX_negctrl_site138] | 10.8 ± 0.64
ATAATTACATAGATTGGTACACATTTTTGATTGTAT [XGTACX_site3802] | 11.1 ± 0.79
TTCTGGCAAAATAACACACACATATATTTTATATAC [CACACA_site3242] | 10.24 ± 0.049
GAACATTTACGCCCCACACACCTACCAACAAAAAAA [CACACA_site7746] | 10.6 ± 0.48
TTCTTAAAAAAAAATAAAATAAAAAAAAAAATAAAA [CACACA_negctrl_site99] | 9.56 ± 0.14
CATTTTTTTTTATAAATACACACGTACGGGTGCATA [CACACA_site1569] | 11 ± 0.8
AAATGAACACGAAAGGAAAAAAAAATATATATATAT [CACACA_negctrl_site267] | 10.1 ± 0.74
TTTTTCATATGACACACACACAAAAATAATGTGGAA [CACACA_site7692] | 10.2 ± 0.23

Sequence | gcPBM binding intensity (ln)
TCATTTTATTATTCTACACACTTATCTATAATTATA [CACACA_site34] | 10.16 ± 0.014
TAAAATATAGAAAATTTTATTAAATATAAAAAAATA [CACACA_negctrl_site1441] | 9.495 ± 0.064
ATTAAATAAAAAAACACACACATATATACATATATA [CACACA_site3445] | 9.81 ± 0.028
CATAATAATAGAAACACACACACATAGACATATATA [CACACA_site1308] | 10.1 ± 0.17
CATATATAACCTATAGCACACATATATAATATATAT [CACACA_site8544] | 10.2 ± 0.21
AAAAATATATATTCAGTGCATATAACAAAAATTATA [GTGCAC_site9794] | 9.89 ± 0.085
TATATATATATATATTGTACATATGTGGTATAAATG [XGTACX_site6108] | 11.1 ± 0.66
TTATATAAACACCAACGTACGTTCATTTAACATAAC [XGTACX_site5250] | 11.1 ± 0.59
AAGAACTTTAATAAGTGTACATTTATTGGAAACATG [XGTACX_site2995] | 11.3 ± 0.65
GCATATCTATTTTCACGTACACAAACATGTATATAT [XGTACX_site3722] | 11.6 ± 0.79
ATATTACATATGTGCTGTACGCAATATATTATATCT [XGTACX_site1520] | 11.6 ± 1
CCCATTTTGACAAAAAGTACAAGTTCAGGTTTTATA [XGTACX_site1532] | 11.3 ± 0.88
TATAATATTAATGACTGTACTCATACGTATATTTAT [XGTACX_site5493] | 11.6 ± 0.88
TTTAATTTATATTTTGTGCACATCTTATTATATATA [GTGCAC_site9630] | 10.5 ± 0.32
AATTTTGTTTAGCACACACACATACATACATACATA [CACACA_site5707] | 10.3 ± 0.2
TATATTTATTCCTGTTGTACTTTATATTATTTTTTT [XGTACX_site1415] | 11.3 ± 0.6
ATATATATATATATATGTACATACATACATAGAACT [XGTACX_site2214] | 11.5 ± 0.7
TCCCATTTATTATGGTGTACAATTAATTAAACATAA [XGTACX_site750] | 11.4 ± 0.91
TTTCTCTTCTAAACATGTACAAAAATACATACATAT [XGTACX_site1365] | 10.9 ± 0.65
AAAAATTAAAATATTATAGTTGAAACTTTTATAAAT [TGCATGCA_negctrl_site454] | 9.52 ± 0.15
ACATATTAATTATTATGACATACATATCAGTTATTA [TGCATGCA_negctrl_site126] | 9.79 ± 0.11
CATGTGATAATGATTAGTACATAAACAAAAATATAT [XGTACX_site5866] | 11.2 ± 0.61

Sequence | gcPBM binding intensity (ln)
AGAAAAATAAACAAATGTACAAATTATTACTATATA [XGTACX_site1087] | 10.49 ± 0.021
TATATTATTTTATATTGTACATACCAAATATTATAT [XGTACX_site1693] | 11 ± 0.64
CGTAAATTTTTTAAAAGTACAAAAAGATACGAGAAA [XGTACX_site8722] | 11.3 ± 0.76
TAAACAAATAAATAAACACACAATATATGTATATAT [CACACA_site3803] | 9.83 ± 0.11
TTTTTACGTAAACAAAATAATTATATAATATTATTT [CACACA_negctrl_site1769] | 10.15 ± 0.099
TATTTTTCTTTTTTCTGTACTCACACAAATAGAAGG [XGTACX_site7329] | 11.6 ± 0.81
ATATTTATATTTGTATGTACTTAAGTTTGTATGTAT [XGTACX_site3608] | 11.3 ± 0.87
TTTTTAATTCAAAAAATAATATATTATATTTCAAAT [CACACA_negctrl_site737] | 9.57 ± 0.14
ATATATTAGGGCAAATTTTCTGACATTACATCAGTC [CACACA_negctrl_site1166] | 9.95 ± 0.014
AAATAATTAGCTATTTGTACATATATACATATTTAT [XGTACX_site4652] | 10.6 ± 0.26
TTAATAACAAAATAAACACACATATATAAATCCACA [CACACA_site1590] | 10.1 ± 0.17
ATATATATAATATAGGTGCACTACTTATTTAAAAAA | 10.5 ± 0.36
TAAAAATGTAGACACACACACATATATATATTTAAT [CACACA_site1528] | 10.2 ± 0.18
TTTTTTAGAAAAAGTTGTACTTTTTTTTTTTTTTTT [XGTACX_site535] | 11.6 ± 0.93
TGTGTTAAATGTAATAGTGAATAAATAATTTTAACA [TGCATGCA_negctrl_site161] | 9.725 ± 0.049
AAAATGAATATAATGACGCACACTTAAAATTGTTAA [CACACA_site2509] | 10.2 ± 0.28
ATATTTTAAATGTTATGTACACATTTGTTGTTTACA [XGTACX_site7353] | 11.4 ± 0.83
AATATTATTATTATTACACACACAATTATATTTACC [CACACA_site8061] | 10.1 ± 0.16
ATTTTTTTTTTTATTTTCTTTGAGATTATCTTAATT [CACACA_negctrl_site1209] | 9.78 ± 0.14
TTAATTTGTTCTTACACACACATATATATATATTTA [CACACA_site1185] | 10.2 ± 0.16
TATATATATACATAATGTACATTTTATAAATTTACA [XGTACX_site5283] | 10.8 ± 0.53
ATAAATTGTTCTTTTTGTGTAAACAGAATATTAAAA [CACACA_negctrl_site1022] | 10.1 ± 0.21

Sequence | gcPBM binding intensity (ln)
ACTACCTATATTTAAGCATGCAAAAAATAAAAATAT [TGCATGCA_site238] | 10 ± 0.29
AAACCAATAAAAAACTGTACAAAAATTATATGAGAT [XGTACX_site1269] | 10.8 ± 0.28
GAATAAAAAATATATGTGCACATATAAACTTAAAAT [GTGCAC_site9554] | 10.3 ± 0.18
TAATATAAAGGAAAAGAAAAGAAAAGAATATACAAT [CACACA_negctrl_site1369] | 9.635 ± 0.035
ATACAACATATATATACACACATATAATAATAATAA [CACACA_site3367] | 10.1 ± 0.29
AATTATTTTTTGTATGAACACACAACTTAATTATGA [CACACA_site8774] | 10.1 ± 0.22
TTGAATGTAGTTAAATGTACATGTAATATATAAAAA [XGTACX_site1250] | 11.2 ± 0.68
TTTGTTTTAAATCGAAGTACACATAATTATATTTTA [XGTACX_site1541] | 11.3 ± 0.88
AAAAAAAAAAAAAAAATACACACGTGAATGTATTGT [CACACA_site1320] | 10.3 ± 0.085
AAATAACACATATATACACACATATAAATATAATAT [CACACA_site2692] | 10.1 ± 0.16
AAAAAACTTATAATCACACATATGATTAAATATTAA [CACACA_site4956] | 9.685 ± 0.092
ATAGGACCTATGTGCCCATGGGTACATTAAAAAAAA [CACACA_negctrl_site1465] | 11.5 ± 0.99
CATTATGTCATAAATGCACACATATACATTGTTTTG [CACACA_site8118] | 10.04 ± 0.092
TAATGTATGAAATAAACACACAAGTAAGTACATAAA [CACACA_site2451] | 11.6 ± 0.98
ATATATTTTATTCCTATATATATATATATATATATA [GTGCAC_negctrl_site556] | 9.98 ± 0.32
AATAAATTATTTATTGCATGTAATATGAATATTTTT [TGCATGCA_site798] | 9.91 ± 0.16
AAAACACCCAAACACACACACACATATATATATATA [CACACA_site9119] | 10.2 ± 0.44
TTCTTGTATTTTCATAGTACATATAATGTCGTGTTA [XGTACX_site7714] | 10.8 ± 0.52
TCTGTAGTTTTTTACAGTACTTTTAGGTAATACATA [XGTACX_site7417] | 11 ± 0.79
AGAAAAAAAATATACACACATACGATCATACATATG [CACACA_site2171] | 10.2 ± 0.13
ACCTCTTTGAAATATACACACTAAACATATCAACTT [CACACA_site5372] | 10.1 ± 0.11
TACATAGAGTTTGTTTGTACTCATATGCGTAAATTC [XGTACX_site4810] | 11.2 ± 0.79
